The supplement of paper PMC11417369
± gives the standard deviation of the averaged measurements. The list shows a part of the results.

Each sequence was assayed on PfAP2-I AP2 domain 3 (GST-tagged) (assay: gcPBM binding intensity (ln(normalized median fluorescence intensity)); higher = stronger DNA binding).
Procedure, shortened: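 Binding intensity is defined as the maximum Masliner-normalised natural-log median intensity across replicate spots for either probe orientation. It was measured on an Agilent 4 × 180k array of primer-extended double-stranded 36-bp intergenic genomic probes and negative controls, to which GST-tagged P. falciparum DNA-binding domains made in E. coli were applied for 1 h in 1× PBS with 1% milk, 0.2 mg/ml BSA, 0.5% salmon testes DNA and 0.03% Triton X-100. Detection was by Alexa488 anti-GST antibody and scanning at 488 nm.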

Sequence	gcPBM binding intensity (ln)
GATTACTAGAAATGCACACACTGATAAAATAAGGAA [CACACA_site6131]	9.29 ± 0.085
TTAAACTTGAAACACACACACACACCGATATAAAAA [CACACA_site4578]	8.06 ± 0.45
AGATTGGAACATTAAAGTACTTACTTTTTTTTTTTT [XGTACX_site8017]	7.54 ± 0.39
AGAAATATATCTATTTGTCCGTATATTCATATTTAT [XGTACX_site8427]	7.61 ± 0.69
ATAAAAATATTGTCTAGTACATATTTATAATAAAAA [XGTACX_site7523]	7.58 ± 0.35
GTGTAAATATAATTAGTTTCACAAAACAAATATTTA [CACACA_negctrl_site717]	7.5 ± 0.4
ATGGGTATTAAGTGTACACATATAGTGTATTTTGTT [CACACA_site4452]	8.04 ± 0.49
AGGCACAAAATTAAATGTACATATATATATATATAT [XGTACX_site3323]	9.38 ± 0.26
AAAAAGAAAAATTGCACACACTTATAAAAATATACG [CACACA_site6074]	8.22 ± 0.36
TATATAAGAATATATACACACATATATGTATATATA [CACACA_site2178]	7.42 ± 0.35
TTTTACAATGAAATATGTACTTAAATGTCCAAATTC [XGTACX_site781]	7.49 ± 0.49
TTAACCATTAATTCTCTACACACTTTTATTTTATTT [CACACA_site8522]	7.84 ± 0.8
GTTAACAAATAATGCACACAAATGGATAAAATTATA [CACACA_site3725]	10.7 ± 0.76
TATTATTAATATGTATGGTTGTAATCTGTGTCTCCT [TGCATGCA_negctrl_site190]	7.88 ± 0.43
AATATAATTTTTTATTGTACAAAAAAATTATTTAAT [XGTACX_site3248]	7.65 ± 0.38
AATAAGTATACACATACACACACACCCAAAAAAAAA [CACACA_site8034]	8.39 ± 0.31
CATTTTGTAAGATATGCACACATGGATCATATTTTA [CACACA_site423]	8.74 ± 0.27
TTTTTTTTTATCAAATGTACATATATATAATAATAA [XGTACX_site3941]	7.96 ± 0.35
CTTAATAAGAATAAATGTACAAGGGATAAAAAATTT [XGTACX_site3213]	8.02 ± 0.73

Sequence	gcPBM binding intensity (ln)
TATTTAATTATTTGTAGTACGATTAATATTTAATGA [XGTACX_site3553]	7.54 ± 0.26
ATAGAATATTAATAATTAAAAATAAAATAAAATAAA [CACACA_negctrl_site1810]	7.84 ± 0.68
ATATATATGTATGTATGTACACACAAAAAATGGAAT [XGTACX_site7879]	8.37 ± 0.64
ATATGCTATTATATATGTACACACCAATTTATTTAT [XGTACX_site8364]	8.29 ± 0.56
TACAAAATAAATGGAACATGCAAAAAAATTGATTAA [TGCATGCA_site790]	7.86 ± 0.75
AAAAAAAAAAAAAAAACACACATTTTAAGAAAAAAA [CACACA_site2926]	8.86 ± 0.64
ATTATATTCTTTACTACCAATTAGTAGAAAATAAAA [CACACA_negctrl_site1096]	7.61 ± 0.29
ATATATATATGTTTGTGTACTTATGATATCATATAA [XGTACX_site3276]	9 ± 0.23
TAAATAAATAAAAATAGTACATAATTATTATTATTA [XGTACX_site4981]	7.42 ± 0.22
TTTTAAAAAATATAATAATATAAATATGTTTTATAC [CACACA_negctrl_site643]	7.54 ± 0.42
TTAAAATAGCTAGTTTGTACATAAAATATATTACTT [XGTACX_site202]	7.43 ± 0.49
AATATATATATATATATTTTTGTTAGAATATGGAAT [GTGCAC_negctrl_site434]	7.74 ± 0.38
TATATTAGAAAGGATACACACATATATATATATCTA [CACACA_site570]	7.58 ± 0.53
ATAACTTTTTAAAAGACACACATAAGAAAAACAAAA [CACACA_site723]	8.08 ± 0.64
ATAAAACGAAGATGTTGTACGTACAAATAAATGAAT [XGTACX_site2472]	8.47 ± 0.45
TATACGCAGAAACACACACACATACACCCACATACA [CACACA_site1723]	8.24 ± 0.099
TATCTTATAAACTCTGCACACATAATATATTAAATG [CACACA_site8587]	8.36 ± 0.51
TTAATTAATTTTTCAGTGCAAATAAAAAATATTTAA	10.4 ± 0.64
CAAAAGTAAGCACGCACACACAACATGAAATAAACT [CACACA_site6223]	8.36 ± 0.63

Sequence	gcPBM binding intensity (ln)
AAAAATTTTAATTAGGAACACACATATATATATATA [CACACA_site9016]	9.43 ± 0.38
AACGTTCATAATTATTGTACCCTCATTTTATTTTTT [XGTACX_site503]	7.96 ± 0.83
TATATTAATATGAAAAGTACACATTCTATATATATA [XGTACX_site929]	8.61 ± 0.26
ACATAATTTGATAATACACACAAATAATCTAAAATT [CACACA_site129]	7.8 ± 0.43
AAAATAATCACATATTGTACAAAAAAATTTATTAAA [XGTACX_site3239]	7.82 ± 0.55
TTTAATTATAAAACGTGTACATAATTATAATTACAT [XGTACX_site2206]	8.45 ± 0.42
AAAAAATGGATGATCACACACTTCATAAAAATTGCA [CACACA_site5256]	7.38 ± 0.59
AAAAAAAAAAAAAAATGTACCCATATATAAATATAT [XGTACX_site4061]	8.34 ± 0.4
ATTATGTACAAAATGGTGCAATATTATACATATATA [GTGCAC_site9468]	11.1 ± 0.49
AAAAATAGTATAAGTAGTACAACTGAAAAGTTATGT [XGTACX_site7488]	7.96 ± 0.57
ATCATTTGCTCACGCACACACACATAAAAAGAAAAA [CACACA_site4349]	8.53 ± 0.18
GACTTTTCAATTTTTCGTACGTATAAATTGTATACA [XGTACX_site1488]	7.88 ± 0.57
TTTTGTTACTTTTATGTGCACTTATAAAACGAACTA [GTGCAC_site9551]	11.3 ± 0.085
CTAATATATATCAATTGTACATATTGAATAAGAACA [XGTACX_site4541]	7.89 ± 0.15
TTTTTATTGTTGTACTTATATTATTTTATTATTAAA [GTGCAC_negctrl_site200]	8.23 ± 0.38
ATTCATTCATATGTTACACACACACCGACACATAAA [CACACA_site5749]	8.38 ± 0.49
TATTAAACTGGACACACACACACACCCATATATAAA [CACACA_site4579]	8.1 ± 0.28
AAATTATGTGCCAATACACACACACCGATATATATA [CACACA_site8050]	8.37 ± 0.58
